# ± gives the standard deviation of the averaged measurements.
# Experiments:
# MCF7 = experiment: percentage of EdU-negative (G0-arrested) nuclei per well, 72 h; higher = more G0 arrest; conditions: reference: sequence is the full UniProt precursor, the tested protein was the secreted form or ectodomain
# hTERT-HMEC = experiment: as above; conditions: reference: sequence is the full UniProt precursor, the tested protein was the secreted form or ectodomain
# [1] = protein concentration 0.0225 µM
# [2] = protein concentration 0.0102857 µM
# [3] = protein concentration 0.102857 µM
# [4] = protein concentration 0.03125 µM
# [5] = protein concentration 0.3125 µM
# [6] = protein concentration 0.0257143 µM
# [7] = protein concentration 0.257143 µM
# [8] = protein concentration 0.00711 µM
# [9] = protein concentration 0.0711 µM
# [10] = protein concentration 0.00933 µM
# [11] = protein concentration 0.0933 µM
# [12] = protein concentration 0.0155 µM
# 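Further: secreted proteins added to cultured cells, EdU pulse at the end, nuclei found by Hoechst imaging, EdU status from nuclear versus surrounding ring intensity ratio, PBS as neutral control.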
sequence,measurement,setting,value
MNKQRGTFSEVSLAQDPKRQQRKPKGNKSSISGTEQEIFQVELNLQNPSLNHQGIDKIYDCQGLLPPPEKLTAEVLGIICIVLMATVLKTIVLIPFLEQNNFSPNTRTQKARHCGHCPEEWITYSNSCYYIGKERRTWEESLLACTSKNSSLLSIDNEEEMKFLASILPSSWIGVFRNSSHHPWVTINGLAFKHKIKDSDNAELNCAVLQVNRLKSAQCGSSMIYHCKHKL,percentage of EdU-negative,MCF7; [1],26.3 ± 0.49%
same,percentage of EdU-negative,MCF7; protein concentration 0.225 µM,29.6 ± 1.5%
same,percentage of EdU-negative,hTERT-HMEC; [1],5.25 ± 0.89%
same,percentage of EdU-negative,hTERT-HMEC; protein concentration 0.225 µM,4.62 ± 0.25%
MQLKIMPKKKRLSAGRVPLILFLCQMISALEVPLDPKLLEDLVQPPTITQQSPKDYIIDPRENIVIQCEAKGKPPPSFSWTRNGTHFDIDKDPLVTMKPGTGTLIINIMSEGKAETYEGVYQCTARNERGAAVSNNIVVRPSRSPLWTKEKLEPITLQSGQSLVLPCRPPIGLPPPIIFWMDNSFQRLPQSERVSQGLNGDLYFSNVLPEDTREDYICYARFNHTQTIQQKQPISVKVISVDELNDTIAANLSDTEFYGAKSSRERPPTFLTPEGNASNKEELRGNVLSLECIAEGLPTPIIYWAKEDGMLPKNRTVYKNFEKTLQIIHVSEADSGNYQCIAKNALGAIHHTISVRVKAAPYWITAPQNLVLSPGEDGTLICRANGNPKPRISWLTNGVPIEIAPDDPSRKIDGDTIIFSNVQERSSAVYQCNASNEYGYLLANAFVNVLAEPPRILTPANTLYQVIANRPALLDCAFFGSPLPTIEWFKGAKGSALHEDIYVLHENGTLEIPVAQKDSTGTYTCVARNKLGMAKNEVHLEIKDPTWIVKQPEYAVVQRGSMVSFECKVKHDHTLSLTVLWLKDNRELPSDERFTVDKDHLVVADVSDDDSGTYTCVANTTLDSVSASAVLSVVAPTPTPAPVYDVPNPPFDLELTDQLDKSVQLSWTPGDDNNSPITKFIIEYEDAMHKPGLWHHQTEVSGTQTTAQLKLSPYVNYSFRVMAVNSIGKSLPSEASEQYLTKASEPDKNPTAVEGLGSEPDNLVITWKPLNGFESNGPGLQYKVSWRQKDGDDEWTSVVVANVSKYIVSGTPTFVPYLIKVQALNDMGFAPEPAVVMGHSGEDLPMVAPGNVRVNVVNSTLAEVHWDPVPLKSIRGHLQGYRIYYWKTQSSSKRNRRHIEKKILTFQGSKTHGMLPGLEPFSHYTLNVRVVNGKGEGPASPDRVFNTPEGVPSAPSSLKIVNPTLDSLTLEWDPPSHPNGILTEYTLKYQPINSTHELGPLVDLKIPANKTRWTLKNLNFSTRYKFYFYAQTSAGSGSQITEEAVTTVDEAGILPPDVGAGKVQAVNPRISNLTAAAAETYANISWEYEGPEHVNFYVEYGVAGSKEEWRKEIVNGSRSFFGLKGLMPGTAYKVRVGAVGDSGFVSSEDVFETGPAMASRQVDIATQGWFIGLMCAVALLILILLIVCFIRRNKGGKYPVKEKEDAHADPEIQPMKEDDGTFGEYSDAEDHKPLKKGSRTPSDRTVKKEDSDDSLVDYGEGVNGQFNEDGSFIGQYSGKKEKEPAEGNESSEAPSPVNAMNSFV,percentage of EdU-negative,MCF7; [2],23.6 ± 3.6%
same,percentage of EdU-negative,MCF7; [3],25.5 ± 1%
same,percentage of EdU-negative,hTERT-HMEC; [2],5.35 ± 1.1%
same,percentage of EdU-negative,hTERT-HMEC; [3],6.14 ± 0.51%
MQPSSLLPLALCLLAAPASALVRIPLHKFTSIRRTMSEVGGSVEDLIAKGPVSKYSQAVPAVTEGPIPEVLKNYMDAQYYGEIGIGTPPQCFTVVFDTGSSNLWVPSIHCKLLDIACWIHHKYNSDKSSTYVKNGTSFDIHYGSGSLSGYLSQDTVSVPCQSASSASALGGVKVERQVFGEATKQPGITFIAAKFDGILGMAYPRISVNNVLPVFDNLMQQKLVDQNIFSFYLSRDPDAQPGGELMLGGTDSKYYKGSLSYLNVTRKAYWQVHLDQVEVASGLTLCKEGCEAIVDTGTSLMVGPVDEVRELQKAIGAVPLIQGEYMIPCEKVSTLPAITLKLGGKGYKLSPEDYTLKVSQAGKTLCLSGFMGMDIPPPSGPLWILGDVFIGRYYTVFDRDNNRVGFAEAARL,percentage of EdU-negative,MCF7; [4],27.24 ± 0.13%
same,percentage of EdU-negative,MCF7; [5],26.623 ± 0.004%
same,percentage of EdU-negative,hTERT-HMEC; [4],5.76 ± 0.58%
same,percentage of EdU-negative,hTERT-HMEC; [5],6.88 ± 0.68%
MRKGLRATAARCGLGLGYLLQMLVLPALALLSASGTGSAAQDDDFFHELPETFPSDPPEPLPHFLIEPEEAYIVKNKPVNLYCKASPATQIYFKCNSEWVHQKDHIVDERVDETSGLIVREVSIEISRQQVEELFGPEDYWCQCVAWSSAGTTKSRKAYVRIAYLRKTFEQEPLGKEVSLEQEVLLQCRPPEGIPVAEVEWLKNEDIIDPVEDRNFYITIDHNLIIKQARLSDTANYTCVAKNIVAKRKSTTATVIVYVNGGWSTWTEWSVCNSRCGRGYQKRTRTCTNPAPLNGGAFCEGQSVQKIACTTLCPVDGRWTPWSKWSTCGTECTHWRRRECTAPAPKNGGKDCDGLVLQSKNCTDGLCMQTAPDSDDVALYVGIVIAVIVCLAISVVVALFVYRKNHRDFESDIIDSSALNGGFQPVNIKAARQDLLAVPPDLTSAAAMYRGPVYALHDVSDKIPMTNSPILDPLPNLKIKVYNTSGAVTPQDDLSEFTSKLSPQMTQSLLENEALSLKNQSLARQTDPSCTAFGSFNSLGGHLIVPNSGVSLLIPAGAIPQGRVYEMYVTVHRKETMRPPMDDSQTLLTPVVSCGPPGALLTRPVVLTMHHCADPNTEDWKILLKNQAAQGQWEDVVVVGEENFTTPCYIQLDAEACHILTENLSTYALVGHSTTKAAAKRLKLAIFGPLCCSSLEYSIRVYCLDDTQDALKEILHLERQMGGQLLEEPKALHFKGSTHNLRLSIHDIAHSLWKSKLLAKYQEIPFYHVWSGSQRNLHCTFTLERFSLNTVELVCKLCVRQVEGEGQIFQLNCTVSEEPTGIDLPLLDPANTITTVTGPSAFSIPLPIRQKLCSSLDAPQTRGHDWRMLAHKLNLDRYLNYFATKSSPTGVILDLWEAQNFPDGNLSMLAAVLEEMGRHETVVSLAAEGQY,percentage of EdU-negative,MCF7; [6],25.01 ± 0.19%
same,percentage of EdU-negative,MCF7; [7],26.58 ± 0.12%
same,percentage of EdU-negative,hTERT-HMEC; [6],5.22 ± 0.21%
same,percentage of EdU-negative,hTERT-HMEC; [7],9.421 ± 0.016%
MRPGLSFLLALLFFLGQAAGDLGDVGPPIPSPGFSSFPGVDSSSSFSSSSRSGSSSSRSLGSGGSVSQLFSNFTGSVDDRGTCQCSVSLPDTTFPVDRVERLEFTAHVLSQKFEKELSKVREYVQLISVYEKKLLNLTVRIDIMEKDTISYTELDFELIKVEVKEMEKLVIQLKESFGGSSEIVDQLEVEIRNMTLLVEKLETLDKNNVLAIRREIVALKTKLKECEASKDQNTPVVHPPPTPGSCGHGGVVNISKPSVVQLNWRGFSYLYGAWGRDYSPQHPNKGLYWVAPLNTDGRLLEYYRLYNTLDDLLLYINARELRITYGQGSGTAVYNNNMYVNMYNTGNIARVNLTTNTIAVTQTLPNAAYNNRFSYANVAWQDIDFAVDENGLWVIYSTEASTGNMVISKLNDTTLQVLNTWYTKQYKPSASNAFMVCGVLYATRTMNTRTEEIFYYYDTNTGKEGKLDIVMHKMQEKVQSINYNPFDQKLYVYNDGYLLNYDLSVLQKPQ [Q6UX06],percentage of EdU-negative,MCF7; [8],26.6 ± 2%
same,percentage of EdU-negative,MCF7; [9],28.1 ± 3.7%
same,percentage of EdU-negative,hTERT-HMEC; [8],5.22 ± 0.32%
same,percentage of EdU-negative,hTERT-HMEC; [9],6.54 ± 1%
MRRLTRRLVLPVFGVLWITVLLFFWVTKRKLEVPTGPEVQTPKPSDADWDDLWDQFDERRYLNAKKWRVGDDPYKLYAFNQRESERISSNRAIPDTRHLRCTLLVYCTDLPPTSIIITFHNEARSTLLRTIRSVLNRTPTHLIREIILVDDFSNDPDDCKQLIKLPKVKCLRNNERQGLVRSRIRGADIAQGTTLTFLDSHCEVNRDWLQPLLHRVKEDYTRVVCPVIDIINLDTFTYIESASELRGGFDWSLHFQWEQLSPEQKARRLDPTEPIRTPIIAGGLFVIDKAWFDYLGKYDMDMDIWGGENFEISFRVWMCGGSLEIVPCSRVGHVFRKKHPYVFPDGNANTYIKNTKRTAEVWMDEYKQYYYAARPFALERPFGNVESRLDLRKNLRCQSFKWYLENIYPELSIPKESSIQKGNIRQRQKCLESQRQNNQETPNLKLSPCAKVKGEDAKSQVWAFTYTQQILQEELCLSVITLFPGAPVVLVLCKNGDDRQQWTKTGSHIEHIASHLCLDTDMFGDGTENGKEIVVNPCESSLMSQHWDMVSS [Q96FL9],percentage of EdU-negative,MCF7; [10],26.8 ± 3.7%
same,percentage of EdU-negative,MCF7; [11],24.5 ± 0.55%
same,percentage of EdU-negative,hTERT-HMEC; [10],5.05 ± 0.54%
same,percentage of EdU-negative,hTERT-HMEC; [11],5.18 ± 0.58%
MSERVERNWSTGGWLLALCLAWLWTHLTLAALQPPTATVLVQQGTCEVIAAHRCCNRNRIEERSQTVKCSCFSGQVAGTTRAKPSCVDASIVLQRWWCQMEPCLPGEECKVLPDLSGWSCSSGHKVKTTKVTR [Q7Z5A8],percentage of EdU-negative,MCF7; [1],25.2 ± 0.76%
same,percentage of EdU-negative,MCF7; protein concentration 0.225 µM,27.3 ± 1.5%
same,percentage of EdU-negative,hTERT-HMEC; [1],4.52 ± 0.85%
same,percentage of EdU-negative,hTERT-HMEC; protein concentration 0.225 µM,5.58 ± 0.31%
MSGSSLPSALALSLLLVSGSLLPGPGAAQNAGFVKSPMSETKLTGDAFELYCDVVGSPTPEIQWWYAEVNRAESFRQLWDGARKRRVTVNTAYGSNGVSVLRITRLTLEDSGTYECRASNDPKRNDLRQNPSITWIRAQATISVLQKPRIVTSEEVIIRDSPVLPVTLQCNLTSSSHTLTYSYWTKNGVELSATRKNASNMEYRINKPRAEDSGEYHCVYHFVSAPKANATIEVKAAPDITGHKRSENKNEGQDATMYCKSVGYPHPDWIWRKKENGMPMDIVNTSGRFFIINKENYTELNIVNLQITEDPGEYECNATNAIGSASVVTVLRVRSHLAPLWPFLGILAEIIILVVIIVVYEKRKRPDEVPDDDEPAGPMKTNSTNNHKDKNLRQRNTN [Q9Y639],percentage of EdU-negative,MCF7; [6],24.7 ± 0.97%
same,percentage of EdU-negative,MCF7; [7],26.5 ± 0.83%
same,percentage of EdU-negative,hTERT-HMEC; [6],5.56 ± 0.45%
same,percentage of EdU-negative,hTERT-HMEC; [7],5.23 ± 0.17%
MSSGGGSRGLLAWLLLLQPWPGQNWAGMAAPRLPSPLLSEEGGENPEASPAPGPEAGPPLNLFTSFPGDSLLCGRTPLRIVGGVDAEEGRWPWQVSVRTKGRHICGGTLVTATWVLTAGHCISSRFHYSVKMGDRSVYNENTSVVVSVQRAFVHPKFSTVTTIRNDLALLQLQHPVNFTSNIQPICIPQENFQVEGRTRCWVTGWGKTPEREKLASEILQDVDQYIMCYEECNKIIQKALSSTKDVIIKGMVCGYKEQGKDSCQGDSGGRLACEYNDTWVQVGIVSWGIGCGR [Q7Z5A4],percentage of EdU-negative,MCF7; [1],22.4 ± 3.4%
same,percentage of EdU-negative,MCF7; protein concentration 0.225 µM,29.7 ± 0.68%
same,percentage of EdU-negative,hTERT-HMEC; [1],5.81 ± 0.35%
same,percentage of EdU-negative,hTERT-HMEC; protein concentration 0.225 µM,7.13 ± 0.12%
MTKNEKKSLNQSLAEWKLFIYNPTTGEFLGRTAKSWGLILLFYLVFYGFLAALFSFTMWVMLQTLNDEVPKYRDQIPSPGLMVFPKPVTALEYTFSRSDPTSYAGYIEDLKKFLKPYTLEEQKNLTVCPDGALFEQKGPVYVACQFPISLLQACSGMNDPDFGYSQGNPCILVKMNRIIGLKPEGVPRIDCVSKNEDIPNVAVYPHNGMIDLKYFPYYGKKLHVGYLQPLVAVQVSFAPNNTGKEVTVECKIDGSANLKSQDDRDKFLGRVMFKITARA,percentage of EdU-negative,MCF7; [12],26.1 ± 0.35%
same,percentage of EdU-negative,MCF7; protein concentration 0.155 µM,29 ± 2.7%
same,percentage of EdU-negative,hTERT-HMEC; [12],4.69 ± 1.3%
same,percentage of EdU-negative,hTERT-HMEC; protein concentration 0.155 µM,6.13 ± 0.067%
